Reference: PubChem BioAssay AID1963576 (National Center for Advancing Translational Sciences (NCATS), 2024)
Screen size: about 46,000 compounds; about 60 (0.1%) were called active. Not shown: some 3% with an inconclusive outcome. Calls follow the shape of the dose curve; as a rule, active = well fitted inhibition curve with a large enough effect; inconclusive = small, poorly fitted or top-dose-only effect; inactive = no such curve, though single readings can be large or run the other way. The list shows a part of the results.

assay: Primary qHTS assay for Inhibitors of ovarian cancer metastasis using an organotypic tumor microenvironment (TME) model.; also: nearly all actives have a fitted effect of over 65% in size;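 as to activity change, negative = inhibition: plate controls were DMSO wells for no effect and tomatine positive control wells for full effect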; details: SKOV3ip1-GFP adhesion/invasion on 3D omental model, fluorescence; series mostly up to 45.8 µM; activity change, negative = inhibition: at the top concentration
How it was run: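 Adhesion/invasion was scored as fixed GFP-labeled SKOV3ip1 cell counts (488/509 nm), normalized to DMSO and tomatine controls. Cancer cells in serum-free medium, with four compound doses (0.36-46 umol/L), sat 2 hr at RT then 16 hr at 37 C on a 48 hr fibroblast/mesothelial/ECM culture.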

outcome, inactive:
CC(C)(C)OC(=O)N1CCC(c2c(C(=O)N3CCCCC3)cnn2-c2ccc(Cl)cc2)CC1
Cc1cccc(Cn2c(CNS(=O)(=O)c3ccc4c(c3)CCCC4)nc3cccnc32)c1
CCc1cccc(NC(=O)C2CCN(C(=O)c3cnn(-c4ccccc4)c3-n3cccc3)CC2)c1
Cc1ccc(-n2c(=O)c3c(C)c(C(=O)N(C)C)sc3n(CC(=O)C(C)(C)C)c2=O)cc1C
Cc1cccc(CNC(=O)Cn2nc(C)n3c(cc4cc(F)ccc43)c2=O)c1
CN(c1ncnc2onc(-c3cccc(Cl)c3)c12)C1CCCCC1
CC1CCn2c(nc3cc(C(=O)NCCc4ccc(Cl)cc4)ccc32)C1 (stereo not given)
Cc1ccc(-n2nc(CO)c(C(=O)NCc3ccccn3)n2)cc1C
CCn1cc(C(=O)N2CCN(c3cccc(C(F)(F)F)c3)CC2)c2cc(OC)c(OC)cc2c1=O
COc1ccccc1-c1cc2nc(C)c(CCC(=O)Nc3ccc(Br)c(C)c3)c(C)n2n1
O=C(NC1(C(F)(F)F)C(=O)Nc2c1c(=O)[nH]c(=O)n2CCc1ccccc1)c1ccc(Cl)cc1Cl (stereo not given)
Cc1cc(C)cc(NC(=O)CCS(=O)(=O)c2cc3c4c(c2)CCN4C(=O)CC3)c1
COC(=O)c1nnn(CC(=O)NC(=O)Nc2cccc(C)c2C)c1C(=O)OC
CCOc1cc(-c2nnc(SCC(=O)Nc3ccc(F)c(F)c3)nc2-c2ccc(OC)c(OCC)c2)ccc1OC
CC(=O)N1CCc2c(sc3c2c(=O)n(-c2ccccc2)c(=O)n3CC(=O)Nc2cccc(C)c2)C1
Cc1c(C(=O)OC2CCCC2)[nH]c2c1C(=O)CC(c1ccc(Cl)cc1)C2 (stereo not given)
COc1ccccc1CNC(=O)CCC1N=C2c3ccccc3N=C(SCc3cccc(Cl)c3)N2C1=O (stereo not given)
CCOc1ccc(OCC)c(NS(=O)(=O)c2cc(Br)cc3c2N(C(C)=O)C(C)C3)c1 (stereo not given)

Activity change, negative = inhibition, inactive:
CCN(CC)C(=O)CSc1nc(-c2ccccc2F)nc2c1Cc1c(CO)cnc(C)c1O2 -3.12%
Cc1c(-c2ccc(Br)cc2)c(=O)oc2ccc(OC(=O)N3CCOCC3)cc12 -3.02%
COc1ccc(OC)c(-c2nnc3n(Cc4ccc(C)cc4)c(=O)c4ccccc4n23)c1 -5.63%
C=Cc1ccc(Cn2c(C)c(CNCc3cccc(Br)c3)c(C(=O)O)c2C)cc1 4.35%
COc1ccc(Cc2nc3ccccc3[nH]c2=O)cc1 -16%
O=C(c1ccccc1Cl)N1c2ncnn2C2(CCCCC2)[C@@H]2CCCC[C@@H]21 -3.1%
COC(=O)c1ccc(OCC2c3cc(OC)c(OC)cc3CCN2C(=O)COc2ccc(Cl)cc2)cc1 (stereo not given) -8.48%
COc1ccc(F)cc1S(=O)(=O)NCCc1csc2nc(-c3cccc(C)c3)nn12 -1.59%
CCOC(=O)c1c(S(=O)(=O)N2CCCC(C(=O)NCc3ccc(Cl)cc3)C2)c(C)n(C)c1C (stereo not given) 9.86%
Nc1nc(Nc2ccccc2F)sc1C(=O)c1ccc(Cl)cc1 1.14%
CCOC(=O)C1CCCN(C(=O)c2nn(-c3ccc(OC)cc3)c(=O)c3c2c2ccccc2n3C)C1 (stereo not given) 1.63%
Cc1cccc(NC(=O)CCS(=O)(=O)c2ccc3c(c2)n(C)c(=O)c(=O)n3C)c1C 16.1%
CCOC(=O)c1noc2ncn(CC(=O)Nc3ccc(C)c(F)c3)c(=O)c12 28.7%
Cc1c(C(=O)N(Cc2ccccc2F)C2CCS(=O)(=O)C2)oc2ccc(F)cc12 (stereo not given) -11.9%
O=c1cc(-c2ccccc2)n2c(SCc3ccccc3)nnc2[nH]1 -19.2%
CCc1ccc(-n2nc(C)c3c(C)cc(=O)n(CC(=O)N4CCCc5ccccc54)c32)cc1 1.27%
CCc1ccc(-n2nc3cc(C)c(NC(=O)c4cccc5ccccc45)cc3n2)cc1 -6.27%
Cn1c(=O)c2c(SCC(=O)NCc3ccco3)nc(-c3ccccc3)nc2n(C)c1=O -5.04%
Cn1c(=O)c2c(nc(NCc3ccccc3)n2Cc2ccccc2)n(C)c1=O -6.72%
COc1ccc(N2CC(NC(=O)COc3ccccc3)CC2=O)cc1OC (stereo not given) -13.8%
Cc1ccc(CNC(=O)c2cc3c(s2)-c2ccccc2SC3)cc1 19.8%
CCOC(=O)c1ccc(NC(=O)Nc2c[nH]c(=O)[nH]c2=O)cc1 -3.82%
CC(C)CN(CCCNC(=O)Cn1ncc2c3ccccc3n(C)c2c1=O)CC(C)C 1.62%
CCc1ccc(OC(C)C(=O)N2CCC(c3nc4ccccc4s3)CC2)cc1 (stereo not given) -9.37%
Cc1ccc(N2CC(NC(=O)Cc3cccs3)CC2=O)cc1C (stereo not given) 6.31%
Cc1nc(N2C(=O)c3oc4ccccc4c(=O)c3C2c2cccc(OCCC(C)C)c2)sc1C (stereo not given) 2.78%
CCOC(=O)N1CCc2c(sc(NCc3cccc(F)c3)c2C(=O)Nc2ccccc2OCC)C1 -0.344%
CCOc1ccc(-c2nonc2NC(=O)c2oc3ccc(Br)cc3c2C)cc1 -3.82%
O=C(CSc1nnc(-c2ccccc2)c(-c2ccccc2)n1)NC1CCCCC1 -2.73%
CCOc1ccc(/C=C(\C#N)c2nc3ccccc3c(=O)[nH]2)cc1OC 7.57%
CCOc1ccccc1NC(=O)C1CCCN(S(=O)(=O)c2c(C)[nH]c(=O)[nH]c2=O)C1 (stereo not given) -7.51%
COc1ccc2c(c1)CCc1c(C(=O)Nc3ccc(F)c(Cl)c3)noc1-2 9.86%
CCc1nc2ccc(C(=O)N3CCN(c4ccccc4)CC3)cc2nc1CC 12.1%
O=C(O)c1cn(-c2ccc(F)cc2)c2cc(N3CCNCC3)c(F)cc2c1=O -7.03%
O=C(Nc1cccc(-c2nc3ccccc3o2)c1)c1ccc(-c2ccc(Br)cc2)o1 3.05%
CCC(=O)Nc1nnc(SCc2cc(=O)c3cc(C)ccc3[nH]2)s1 -1.01%
COc1ccc(S(=O)(=O)N(CCc2ccccc2)CC(=O)Nc2ccc(C)c(C)c2)cc1OC 0.13%
CCOc1ccc(CNS(=O)(=O)c2c(C(=O)N3CCC(C)CC3)c(C)n(C)c2C)cc1OC 5.58%
O=S(=O)(Nc1ccc(-c2ccc(N3CCCC3)nn2)cc1)c1ccc(Cl)cc1 -4.55%
COc1ccccc1CNC(=O)CCCc1nnc2n(CC(C)C)c(=O)c3sccc3n12 5.11%
CC(C)N(C(=O)CSc1nc2ccc(Cl)cc2[nH]1)c1ccccc1 0.0488%
COc1ccc(-c2cc3nc(-c4ccc(C)cc4)cc(C(F)(F)F)n3n2)cc1 11.7%
